# According to ChEMBL document CHEMBL4888484, “Replenishing the malaria drug discovery pipeline: Screening and hit evaluation of the MMV Hit Generation Library 1 (HGL1) against asexual blood stage Plasmodium falciparum ,using a nano luciferase reporter read-out” (2022):
# In all, about 150,000 compounds went through this assay and about 540 (0.36%) showed an effect of 50% or more. Some of the results follow.
# Tested on: Plasmodium falciparum
# Test: Primary screen in NF54 nanoGlo assay, in single point, at 2uM, 72h; a lower Z score goes with more inhibition
# Assay type: functional, Erythrocyte
# Details: timepoint 72 hour
Structure (SMILES),% Inhibition,Z score
COc1ccc2nc(C[C@@H]3C[C@@H](C(C)C)[C@H](CNC(=O)Cn4cnnn4)C=C3C)[nH]c2n1,-5%,0.91
CC(C)CCOC(C)C(=O)N1CCCC(C)C1 (stereo not given),-10%,1.5
O=C(CCCN1CCCC1=O)NCc1cccc(C(F)(F)F)c1F,-3%,0.32
O=C(Nc1cccc2cc[nH]c12)N1CCC(O)(C2CCC2)CC1,-5%,1.01
Cc1nc(CN(C)C(=O)C[C@H]2CCCc3ccccc32)no1,0%,0.04
CC(C)c1ccc(C#N)c(-c2ccc(C(=O)NCCC3(O)CCCC3)cc2)n1,-12%,1.67
Cc1c(CN(C)[C@@H](C)CC(N)=O)[nH]c2ccc(Cl)cc12,-1%,0.13
O=C(CCC1CCC(C2OCCO2)O1)NCCc1ccco1 (stereo not given),-12%,2.25
CN1C(=O)[C@]2(CCN(S(=O)(=O)c3cccc(C#N)c3)C2)c2ccccc21,-5%,0.63
O=C(NC[C@H](O)c1cccs1)c1cccs1,-3%,0.57
N#Cc1c(N2CCC(OCCCO)CC2)nc2ccccn12,4%,-0.37
O=S(=O)(NCCc1cccc2[nH]ccc12)C1CC1,5%,-0.92
COc1c(N)cc(C(=O)O)cc1Br,-7%,1.13
CC1(C)C2CCC1(C)C(OC(=O)CN1CCCS1(=O)=O)C2 (stereo not given),-7%,0.98
O=C([C@@H]1CCCCN1CCC(F)(F)F)N1CCCC1,-10%,1.01
O=c1nc(NC2CC(F)(F)C2)[nH]c2[nH]ncc12,2%,-0.22
CCN(CC)CCCNC(=O)C1CCN(c2nnc(C)c3c(C)n(-c4ccc(OC)cc4)nc23)CC1,-5%,0.8
CCOC(=O)N1CCc2c(sc(NCc3ccc(OC)cc3)c2C(=O)Nc2ccc(OCC)cc2)C1,-1%,0.23
Cc1ccc(NC(=O)CC(=O)NCc2ncc[nH]2)c(C)c1,-1%,0.14
CCOc1cccc2c1Oc1c(c(=O)n(-c3ccc(CC)cc3)n1CC(=O)Nc1ccc3c(c1)OCCO3)C2,-16%,1.62
COc1ccc(N2C(=O)[C@@H]3CCCN3[C@H]2c2ccc(N(C)C)cc2)cc1Cl,-10%,1.25
Cc1cc(Br)cnc1N(C)CCN1CCCC1=O,-13%,1.43
COC1CCN(C(=O)c2ccc3c(c2)n(CC2CC2)c(=O)n3C2CCCCC2)CC1,-3%,0.31
COC(=O)Cc1cc(O)n(-c2ccccn2)n1,-6%,1.1
Cc1cccc(CN2CCN(Cc3cnn(C)c3C)C[C@@H]2CCO)n1,-7%,1.06
COC(=O)c1nscc1S(=O)(=O)N1CCOCC(F)(F)C1,-4%,0.64
NC(=O)CCN1CCC[C@H](c2nc3ccccc3s2)C1,-1%,0.1
C=Cc1ccc(C(=O)NCC[C@H]2CCCN(C)C2)cc1,-11%,1.66

Structure (SMILES),% Inhibition,Z score
NC(=O)c1ccc(=O)n(Cc2ccn(-c3ccccc3)n2)n1,-11%,1.28
CS(=O)(=O)C1CCN(C(=O)c2nc3ccccc3s2)CC1,-9%,1.55
Nc1nc2c(s1)[C@@H](c1ccccc1OCc1ccccc1)CC(O)=N2,27%,-3.03
COCC(=O)N1CCOCC(F)(F)C1,5%,-0.47
CCc1ccc(CNC(=O)c2ccncc2)s1,-4%,0.35
CC(C)N1CCNC(=O)[C@@H]1Cc1nc(-c2cccnc2)no1,-14%,1.98
Cc1nn(C)c2nc(OCC(=O)NC(C)(C)C)cc(C(F)(F)F)c12,-8%,0.92
Cc1cc(CN(C)Cc2sncc2Br)no1,-6%,1.16
COCC(C)(C)CC(=O)NC[C@H]1CC[C@H](c2ccccc2)O1,-14%,2.06
Cc1cc(N2CC(C)OC(C)C2)nc(C(C)N2CC(C)OC(C)C2)n1 (stereo not given),-11%,1.53
CCOc1ncccc1C(=O)N(CC)CC(=O)NCc1cccs1,-13%,1.08
C[C@@]1(C(=O)NC2CCCCCCC2)CCC(=O)N1Cc1cccnc1,-6%,0.95
CCC(=O)N1CCC(OC2CCN(C(=O)CC)CC2)CC1,-11%,1.3
O=C(CCc1nc2ccccc2c(=O)[nH]1)Nc1nc[nH]n1,-6%,0.82
CN(Cc1ccccc1)[C@H]1CCCN(C(=O)c2nc3ncccn3n2)C1,-5%,0.84
COc1ccc(CCC(=O)N[C@H]2CC[C@@H](n3cc(C(=O)NC(C)C)nn3)CC2)cc1,22%,-2.78
CO[C@H]1[C@H](NC(=O)c2sccc2Cl)c2ccccc2C12CCNCC2,5%,-0.82
O=C1C[C@H](c2noc(-c3cc(F)cc(F)c3)n2)CN1c1ccc(F)cc1,-11%,1.03
CCCc1nnc(NC[C@@H](c2ccncc2)N2CCOCC2)o1,-10%,1.36
O=C(Nc1ccsc1C(=O)NCc1cc(F)cc(F)c1)c1cnccn1,39%,-1.29
Cc1nsc(NC(=O)N2CCCN(c3ccncc3)CC2)n1,-8%,1.15
Cn1c(=O)c2c(ncn2CC(=O)N2CCN(c3ccccc3F)CC2)n(C)c1=O,-11%,1.44
COc1ccc2c(c1)CCC[C@@]2(O)CNC(=O)CC1CC1,4%,-0.55
C[C@]1(Cc2cccc3ccccc23)CCCN1,8%,-1.14
CC(C)[C@H](NC(=O)OC(C)(C)C)c1nnc(S(=O)(=O)Cc2cccc(Cl)c2)o1,-7%,1.11
CC(C)Cc1csc(C(=O)Nc2ccccc2)c1C(=O)Nc1ccc(Cl)cc1,0%,-0.05
CC(=O)NCCCC(=O)N1CCC(O)(c2ccc3nc(C)ccc3c2)CC1,10%,-1.26
